The values below come from publication PMC4336329 (PLoS ONE, 2015).

The structures appear in SMILES notation. Among all 310,000 compounds or so, about 14,000 (4.5%) showed an effect of 50% or more. Effects have a minus sign here. The list shows a part of the results.
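Further: peak tail current of the secondary pulse compared with the same well before compound.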

Sequence of human ether-à-go-go-related gene (hERG) potassium channel (Q12809 whole entry, looked up): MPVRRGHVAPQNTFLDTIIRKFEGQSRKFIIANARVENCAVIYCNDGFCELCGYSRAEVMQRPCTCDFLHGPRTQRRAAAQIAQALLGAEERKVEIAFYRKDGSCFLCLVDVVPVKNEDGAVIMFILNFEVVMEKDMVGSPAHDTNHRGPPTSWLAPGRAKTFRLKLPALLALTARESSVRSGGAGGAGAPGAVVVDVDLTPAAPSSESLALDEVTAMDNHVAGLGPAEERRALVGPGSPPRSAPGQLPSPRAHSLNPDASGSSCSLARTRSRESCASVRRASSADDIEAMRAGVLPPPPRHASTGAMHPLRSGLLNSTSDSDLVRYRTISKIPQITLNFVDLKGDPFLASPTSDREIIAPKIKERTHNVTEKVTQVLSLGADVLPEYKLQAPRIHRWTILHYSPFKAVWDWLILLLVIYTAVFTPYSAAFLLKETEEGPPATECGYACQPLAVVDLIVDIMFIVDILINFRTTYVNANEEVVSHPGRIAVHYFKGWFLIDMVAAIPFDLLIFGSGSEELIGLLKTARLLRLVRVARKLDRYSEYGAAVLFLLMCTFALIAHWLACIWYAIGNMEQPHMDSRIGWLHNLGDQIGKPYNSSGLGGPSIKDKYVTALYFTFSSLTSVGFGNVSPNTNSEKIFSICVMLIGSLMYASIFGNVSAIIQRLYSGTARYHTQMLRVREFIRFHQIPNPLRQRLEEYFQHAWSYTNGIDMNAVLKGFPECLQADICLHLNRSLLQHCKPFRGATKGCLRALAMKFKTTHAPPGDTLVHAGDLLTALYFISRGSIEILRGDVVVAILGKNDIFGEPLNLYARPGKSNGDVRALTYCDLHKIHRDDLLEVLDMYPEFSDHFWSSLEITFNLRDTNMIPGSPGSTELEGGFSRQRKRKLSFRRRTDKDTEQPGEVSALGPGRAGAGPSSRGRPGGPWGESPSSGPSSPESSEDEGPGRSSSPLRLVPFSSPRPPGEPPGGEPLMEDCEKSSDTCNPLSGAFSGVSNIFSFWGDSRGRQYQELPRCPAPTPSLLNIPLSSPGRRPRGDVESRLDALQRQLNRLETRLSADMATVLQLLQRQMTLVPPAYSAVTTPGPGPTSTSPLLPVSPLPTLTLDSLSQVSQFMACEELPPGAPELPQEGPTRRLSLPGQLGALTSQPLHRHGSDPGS

The assay has as its target human ether-à-go-go-related gene (hERG) potassium channel (human, UniProt Q12809). In words: primary screen, population patch clamp on CHO cells stably expressing hERG.
For the compound `CCCCC(=O)Nc1nc(C)c(-c2csc(Nc3ccccc3OC)n2)s1`, the “hERG current change (%, negative = inhibition) at 10uM” value is -0.735%.
`Nc1nn(-c2ccccc2)nc1C(=O)OCc1ccccc1F`: the “hERG current change (%, negative = inhibition) at 10uM” value is recorded as 13%.
With `O=C(OCc1nc2ccccc2[n+]([O-])c1C(=O)c1ccccc1)c1ccco1`, the “hERG current change (%, negative = inhibition) at 10uM” value stood at 6.61%.
With `CN(Cc1ccccc1)C(=O)COC(=O)CNS(=O)(=O)c1ccc2ccccc2c1` the figure was -31.5%; with `COCCNCCOc1ccccc1-c1ccccc1.O=C(O)C(=O)O`, -9.52%.
Consider `COC(=O)c1c(NC(=O)C(=O)N2CCOCC2)sc2c1CCCC2`, for which the “hERG current change (%, negative = inhibition) at 10uM” value is 7.47%.
Take `O=C(/C=C/c1c(Cl)nc2ccccn12)N1CCCCC1`: the “hERG current change (%, negative = inhibition) at 10uM” value is 2.54%.
Regarding `CCOc1ccc(OCCCC(=O)NCCOc2ccccc2OC)cc1`, the “hERG current change (%, negative = inhibition) at 10uM” value is -43.9%.
With `Cc1cc(C)cc(-n2c(C)cc(/C=N\NC(=O)COc3cccc4cccnc34)c2C)c1`, the “hERG current change (%, negative = inhibition) at 10uM” value turned out to be 22.3%.
As for `Cc1cc(NC(=O)c2ccc(Cn3nc(C)c(Br)c3C)o2)no1`, the “hERG current change (%, negative = inhibition) at 10uM” value is 0.704%.
As to `Cc1ccc(SCC(=O)c2ccc[nH]2)cc1`, the “hERG current change (%, negative = inhibition) at 10uM” value is -8.95%.
For the compound `COC(=O)C(Cc1ccc(OC(=O)c2ccccc2Cl)cc1)N1Cc2ccccc2C1=O` (stereo not shown), the “hERG current change (%, negative = inhibition) at 10uM” value amounted to 0.977%.
On to `O=C(Nc1ccccc1N1CCCC1)c1ccccc1F`, for which the “hERG current change (%, negative = inhibition) at 10uM” value is recorded as -3.26%.
With `COc1ccc(S(=O)(=O)N2CCC(C(=O)Nc3cccc(C(C)=O)c3)CC2)cc1C` the figure was -7.61%; with `c1ccc(Nc2nnc(SCc3cccc4ccccc34)s2)cc1`, 12.5%.
`O=C(Nc1ccc(Br)cc1)N1CCCC(O)C1` (stereo not shown): the “hERG current change (%, negative = inhibition) at 10uM” value is recorded as 6.54%.
On to `CCSc1nnc(NC(=O)CSc2nnc(-c3c[nH]c4ccccc34)n2CC)s1`, for which the “hERG current change (%, negative = inhibition) at 10uM” value stood at 12.5%.
As for `Cc1ccc(NC(=O)CCn2cnc3ccccc3c2=O)c(C)c1`, the “hERG current change (%, negative = inhibition) at 10uM” value came to 6.65%.
In the case of `CCOC(=O)c1c(C)[nH]c2cc(Br)c(O)cc12`, the “hERG current change (%, negative = inhibition) at 10uM” value is 14.6%.
As for `CC(=O)N1CCN(CC(=O)Nc2ccc(C)c(S(=O)(=O)N(C)C)c2)CC1`, the “hERG current change (%, negative = inhibition) at 10uM” value worked out at 17.7%.
Take `CC(Sc1nnc(-c2ccccc2F)n1C1CC1)C(N)=O` (stereo not shown): the “hERG current change (%, negative = inhibition) at 10uM” value is given as 10.5%.
In the case of `O=C(Cn1ccc(NC(=O)OCc2ccccc2)nc1=O)NCc1ccc2[nH]ccc2c1`, the “hERG current change (%, negative = inhibition) at 10uM” value amounted to 2.18%.
Take `Cc1ccc(S(=O)(=O)N(C)c2ccc(OCC(=O)N3CCCC(C(F)(F)F)C3)cc2)cc1` (stereo not shown): the “hERG current change (%, negative = inhibition) at 10uM” value was -39.9%.
Regarding `C/C(=N\NC(=O)c1cccc(N/N=C(\C)c2ccc([N+](=O)[O-])cc2)c1)c1ccc([N+](=O)[O-])cc1`, the “hERG current change (%, negative = inhibition) at 10uM” value worked out at 1.39%.
In the case of `O=C(O)C(=O)O.OC(CNC1CCCCCC1)COc1cccc2ccccc12` (stereo not shown), the “hERG current change (%, negative = inhibition) at 10uM” value is -22.3%.
With `COc1cccc(NC(=O)CN2C(=O)COc3ccc(S(=O)(=O)N4CCOCC4)cc32)c1` the figure was 15.6%; with `CC(C)(C)CN1CCNC(=O)C1CC(=O)N1CCOc2ccccc2C1` (stereo not shown), 22.3%.
On to `Cc1csc(=O)n1CC(=O)OCC(=O)Nc1cc(Cl)ccc1[N+](=O)[O-]`, for which the “hERG current change (%, negative = inhibition) at 10uM” value is given as -17.8%.
On to `N#Cc1cccc(NC(=O)c2cncn2-c2ccccc2)c1`, for which the “hERG current change (%, negative = inhibition) at 10uM” value is recorded as 12.4%.
For `Cc1ccc(C2CC(c3ccccc3)n3ncnc3N2)cc1` (stereo not shown), the “hERG current change (%, negative = inhibition) at 10uM” value is reported as -1.18%.
For the compound `COC(=O)C(C)Sc1nnc(-c2ccncc2)o1` (stereo not shown), the “hERG current change (%, negative = inhibition) at 10uM” value was -28.8%.
In the case of `Nc1ccc(C(=O)CC(=O)Nc2ccc(Cl)cc2)cc1`, the “hERG current change (%, negative = inhibition) at 10uM” value is -3.34%.
On to `COc1ccc(S(=O)(=O)N2CCN(CC(=O)Nc3ccccc3Cl)CC2)cc1`, for which the “hERG current change (%, negative = inhibition) at 10uM” value is -1.6%.
Consider `COc1ccc(C)cc1NC(=O)C(Sc1nnc(Nc2ccccc2F)s1)c1ccccc1` (stereo not shown), for which the “hERG current change (%, negative = inhibition) at 10uM” value came to 11.1%.
Consider `O=C(CCc1ccccc1F)N1CCN(c2ccc(C(F)(F)F)cn2)CC1`, for which the “hERG current change (%, negative = inhibition) at 10uM” value amounted to 18.2%.
On to `Cc1c(Cc2c(C)n(C)n(-c3ccccc3)c2=O)c(=O)n(-c2ccccc2)n1C`, for which the “hERG current change (%, negative = inhibition) at 10uM” value worked out at 3.53%.
For `COc1ccc(CN2C(=O)CN=C2Nc2ccc(C)cc2C)cc1.Cl`, the “hERG current change (%, negative = inhibition) at 10uM” value was -13.1%.
With `O=C(c1ccc(S(=O)(=O)c2ccc(Cl)cc2)cc1)N1CCOCC1` the figure was -21.9%.
In the case of `Nc1cc(Cl)ccc1N1C(=O)CCC1=O`, the “hERG current change (%, negative = inhibition) at 10uM” value worked out at 20.2%.
In the case of `CCCn1c(C)cc(C(=O)COC(=O)c2ccc(Cl)c(S(=O)(=O)N3CCCC3)c2)c1C`, the “hERG current change (%, negative = inhibition) at 10uM” value is 9.17%.
With `CC(C)Cn1c(-c2csc(C(C)C)c2)n[nH]c1=S`, the “hERG current change (%, negative = inhibition) at 10uM” value turned out to be 14.4%.
In the case of `CC1(C)Cc2nc3oc4c(NCc5ccccc5)ncnc4c3cc2CO1`, the “hERG current change (%, negative = inhibition) at 10uM” value is on record as -10.7%.
On to `COc1ccc(CN2C(=O)c3ccccc3C(/C=N/OCc3ccc(Cl)cc3)C2=O)cc1` (stereo not shown), for which the “hERG current change (%, negative = inhibition) at 10uM” value worked out at 6.39%.
Consider `Cc1cc(O)c(C(=O)/C=C/c2ccccc2Br)c(=O)o1`, for which the “hERG current change (%, negative = inhibition) at 10uM” value was found to be 26%.
In the case of `O=C(CCCN1C(=O)CCC1=O)Nc1ccc(Cl)c(C(F)(F)F)c1`, the “hERG current change (%, negative = inhibition) at 10uM” value is given as -18.8%.
Consider `CC(C)CC(=O)Nc1ccc(C(=O)Cn2c(=O)oc3ccccc32)cc1`, for which the “hERG current change (%, negative = inhibition) at 10uM” value worked out at 7.47%.
Consider `COc1ccccc1NC(=O)c1ccc(Cl)c(S(=O)(=O)NCc2ccco2)c1`, for which the “hERG current change (%, negative = inhibition) at 10uM” value is reported as -37.7%.
Next, `O=C1c2ccccc2S(=O)(=O)N1Cc1ccccc1[N+](=O)[O-]`: 16.3%.
Next, `O=C(CSc1nnc(-c2ccccc2)o1)c1ccc2c(c1)OCCO2`: 3.15%; `CCN(CC#CCC(O)(c1ccccc1)C1CCCC1)C(C)C.Cl` (stereo not shown): -18.9%.
With `CC(C)c1ccc(/C=N/Nc2cc(N3CCOCC3)nc(N3CCOCC3)n2)cc1` the figure was -3.41%; with `COc1cc(CNCCN(C)C)c(Br)cc1OCC(=O)NCc1ccccc1`, -29.2%; with `COC(=O)c1ccccc1NC(=O)C1=CC(c2cccs2)=NS(=O)(=O)N1C`, -8.31%.
As for `CC(C)C[C@H](NC(=O)c1nc[nH]c1C(=O)NC1CCN(C(=O)OC(C)(C)C)CC1)C(=O)OCc1ccccc1`, the “hERG current change (%, negative = inhibition) at 10uM” value worked out at 3.48%.
Take `COCCCNS(=O)(=O)c1ccccc1`: the “hERG current change (%, negative = inhibition) at 10uM” value is 0.287%.
